# Source: PubChem BioAssay AID1794744 (DTP/NCI, 2022)
#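 Compound tested at a single concentration for 48 hours in 96-well plates; a percent growth value below 10 was scored as active.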 Not every entry of the source has a single result; some have several. This is not the full list of results. An entry can have further records. These are repeated runs of one drug, at its own concentration, as given; one value stands for one run. Counts like (3×) count equal records among those shown.
# Test system: DMS 273 lung
# Experiment: NCI-60 one-dose screen, 48 h (100 = growth as untreated, 0 = no growth, -100 = all killed)
# Conditions: 2.5 mM
# Procedure: Growth inhibition of the DMS 273 human tumor cell line is measured as a screen for anti-cancer activity. Cells are grown in 96 well plates and exposed to the test compound for 48 hours. Compounds are tested at a single concentration, which is 10^-5 M for most compounds. The reported endpoint is percent growth (GI% or GIPRCNT), where numbers from 0 - 100% represent growth inhibition, and numbers from -100% - 0 represent cell death. For example, a value of 40 represents 60% growth inhibition. A value of 0 means no net growth occurred over the course of the experiment. A value of -40 indicates 40% of cells at the beginning of the experiment died by the end of the experiment. A value of -100 means all cells are dead at the end of the experiment.
# NCI-60 Human Tumor Cell Lines Screen was performed using the standard one-dose NCI protocol, which is described in more detail at https://dtp.cancer.gov/discovery_development/nci-60/default.htm.
# Compounds with GIPRCNT values below 10 were considered active. Activity score was based on GIPRCNT using the following formula: […]
# Score is 0 for GIPRCNT values of 100 or above, 50 for GIPRCNT values of 0, and 100 for GIPRCNT values of -100.
smiles,measurement,setting,value
O=c1[nH]cc(F)c(=O)[nH]1,growth,runs of 1991,"24.9, 4.67, -20.8, -9.55, 5.38, 12.2, 5.35, 0.0978, 10.9, 9.35, 4.08, 4.86%"
same,growth,runs of 1992,"-8.68, -32.3, 7.21, -26.4, 1.66, 4.88, 1.31, 5.49, 8.06, 8.68, 13.4, 5.56, 13.3, 3.25, 8.31, -1.97, 3.51, -29, -12.9, 106, 4.71, 2.41, 9.73, 7.28, 7.82 (2×), 14.7, -20.5, 4.99, 4.95, -10.9, 2.59, -22.4, 5.04, 4.98, 5.96, 4.75, 3.47, 7.55, 10.4 (2×), 9.89, 3.28, 1.97, -17, 6.02 (2×), 4.04, 3.75, 11.7, 0.682, 13.2, 5.91, 9.26, 0.544, -1.49, -25.8, 0.803, -8.03, 3.09, 1.18, -23.6, -22.6, -10.4, 9.42, 7.95, 9.95, 5.07, -5.81, 6.85, -15.2, 7, 12.7, 13.9, 6.58, -1.43, -33.9, 39.7, 14.4, 7.9, 9.67, 6.36, -28.4, -5.43, 8.62, 15.2, 16.9, 4.31%"
